Test results published in PubChem BioAssay AID1508623 (National Center for Advancing Translational Sciences (NCATS), 2021).
Screen size: about 48,000 compounds; about 450 (0.94%) were called active. Another 19% or so got no clear call; they are omitted. Calls come from the whole dose curve; as a rule, active = well fitted inhibition curve with a large enough effect; inconclusive = small, poorly fitted or top-dose-only effect; inactive = no such curve, though single readings can be large or run the other way. This is one part of the list.

assay: Primary qHTS for Identification of Small Molecule Inhibitors of Huntingtin Promoter Activity; settings: HEK293 HTT promoter firefly luciferase reporter (activity 0% = vehicle and -100% = no light), 24 h; series mostly up to 57.5 µM; activity change, negative = inhibition: at the top concentration; note: nearly all actives have a fitted effect of over 50% in size
Procedure, shortened: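 HEK293 cells carrying firefly luciferase reporters were seeded at 2,500 per well in Opti-MEM and cultured for 24 h. They were then treated with compounds at up to 57.5 uM final for 24 h at 37 degrees C before Dual-Glo luminescence readout.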

Activity change, negative = inhibition, inactive:
COc1ccc(-c2onc(C)c2C)cc1S(=O)(=O)N1CCN(c2ccc(Cl)cc2)CC1 -4.7%
O=C(CSc1nc2c([nH]c3ccccc32)c(=O)n1-c1ccccc1)N1CCOCC1 -2.78%
CC(C)OC(=O)c1c(NC(=O)COc2cccc(Br)c2)sc2c1CCCC2 -0.518%
CC(CNC(=O)C1CCN(S(=O)(=O)c2ccc3c(ccn3C)c2)CC1)c1ccccc1 (configuration not stated) 0%
COc1ccc(-c2coc3cc(O)ccc3c2=O)cc1 17.2%
Nc1nonc1C(=O)NCCNCc1cccc(Cl)c1Cl 7.12%
O=C1CC(c2cccc(O)c2)c2cc3c(cc2N1)OCO3 (configuration not stated) -13.8%
CCCCN(CC)CCCNC(=O)C1CCCN(c2ncnc3c2nc2n3CCCCC2)C1 (configuration not stated) -18.9% [at 11.5 µM]
COc1ccc(NC(=O)Cn2c(=O)n(Cc3ccccc3Cl)c(=O)c3cc(OC)c(OC)cc32)cc1OC -2.5%
Cc1ccc(NC(=O)c2c(C)oc3ccc(O)c(CN4CCCCCC4)c23)cc1 -14.2%
Cc1ccc(CCNC(=O)c2c(C)oc3nc(C)nc(N4CCOCC4)c23)cc1 0.337%
Cn1cc(-c2cc3n(n2)CCC(=O)N3CC(=O)NCc2ccc(Cl)cc2)c2ccccc21 0%
CCOc1ccc(CNC(=O)c2ccc3c(c2)nnn3C2CCCC2)cc1 -5.07%
Cc1cccc(Cn2c(=O)n(Cc3ccc4c(c3)OCO4)c(=O)c3oc4ccccc4c32)c1 -8.81%
CCc1ccccc1NC(=O)c1cc2nc(-c3ccc(OC)c(OC)c3)cc(C(F)(F)F)n2n1 -5.43%
O=c1oc2c(CN3CCCC3)c(O)ccc2cc1-c1ccccc1 25%
COc1ccccc1N1CCN(C(=O)Nc2cn(CC(C)C)c(=O)c3ccccc23)CC1 5.1%
CCOCCCNC(=O)c1c(NC(=O)c2cc(=O)c3ccccc3o2)sc2c1CCC2 -13.5%
COC(=O)c1ccc(NC(=O)Cn2c(=O)nc(-c3ccccc3)c3ccccc32)cc1 -35.5%
COc1cc2ccccc2cc1C(=O)Nc1ccc2oc(-c3ccc(Cl)cc3)nc2c1 -1.04%
O=C(Nc1ccc(C(=O)OCc2cc(=O)n3c4c(sc3n2)CCCC4)cc1)c1ccc(Cl)cc1 -7.61%
Cc1ccc2c(=O)cc(C(=O)Nc3c(C(=O)Nc4cccc(Cl)c4)oc4ccccc34)oc2c1 -8.67%
O=C(c1ccc(Br)s1)N(Cc1cccnc1)c1nc2ccc(F)cc2s1 -9.66%
CCOc1ccccc1NC(=O)CN1C(=O)COc2ccc(S(=O)(=O)N3CCCCC3)cc21 2.22%
Cc1ccc(N2C(=O)CSC23C(=O)N(CC(=O)NC2CCCCC2)c2ccccc23)cc1C (configuration not stated) 2.15%
Oc1c(Br)cc(Br)c2cccnc12 -1.21%
Nc1nc(=O)n([C@@H]2O[C@H](CO)[C@@H](O)[C@@H]2F)cc1I 4.84%
CCOC(=O)c1c(C)oc2ncnc(Nc3cc(Cl)ccc3OC)c12 -0.511%
Cc1ccc2nc(COc3ccccc3NC(=O)COc3ccccc3Cl)cc(=O)n2c1 -9.78%
CSc1ncc(C(=O)NCc2ccc(C)cc2)c(-c2ccccc2)n1 10%
Cc1ccc(CNC(=O)C2CCN(S(=O)(=O)c3c(C)noc3/C=C/c3c(C)cc(C)cc3C)CC2)cc1 -16.2%
CCOc1ccccc1CNC(=O)CCCN1C(=O)c2cccnc2Oc2ccc(Cl)cc21 -12.2%
COc1ccccc1Cn1c(SCC(=O)C(C)(C)C)nc2ccccc2c1=O -38.9%
CCNC(=O)C1CCN(Cc2cc3ccccc3n2Cc2ccc(C)cc2)CC1 -15.7%
COC(=O)CN1C(C(=O)c2ccccc2)=C(OC(=O)c2ccc(C)cc2)c2ccccc2S1(=O)=O -12.1%
Clc1cccc(CSc2ccc(-c3cccs3)nn2)c1 13.6%
O=C(c1cccn1-c1nnc(N2CCCCC2)s1)N1CCN(c2ccccc2)CC1 -11.4%
CCn1c(=O)c2sccc2n2c(CCC(=O)NCc3ccc(Cl)cc3)nnc12 7.13%
N#Cc1ccc(CSc2nnc(-c3ccc(Br)cc3)o2)cc1 -13.7%
CCOC(=O)C1CCN(C(=O)Cn2ncc3c4ccccc4n(C)c3c2=O)CC1 -6.91%
COc1ccc(CNC(=O)CCCN2C(=O)c3cccnc3Oc3ccc(Cl)cc32)cc1 -10.9%
Cc1cccc(NS(=O)(=O)c2nnc(NC(=O)c3cccc(C)c3)s2)c1 -3.8%
Cc1ccc(-n2c(SCC(=O)Nc3ccc4c(c3)OCCO4)nc3c([nH]c4ccccc43)c2=O)cc1 -10.7%
Cc1ccc(OCC(=O)Nc2sc3c(c2C(N)=O)CCCC3)c(C(C)(C)C)c1 -4.71%
CCOC(=O)c1ccc(NC(=O)CN2CCCCC2)cc1 15.5%
Cc1cccc(NC(=O)c2cc3c(=O)n4ccccc4nc3n2C)c1C -0.171%
CCCCNC(=O)Cn1cnc2sc(C)c(S(=O)(=O)N3CCN(c4ccccc4OC)CC3)c2c1=O -12%
CC(C)OCCCNC(=O)CN1C(=O)COc2ccc(S(=O)(=O)N3CCOCC3)cc21 -8.49%
COc1ccccc1NC(=O)c1ncoc1-c1ccco1 -15.4%
O=C(Cn1ncc2c3ccccc3n(Cc3ccccc3F)c2c1=O)NCCCc1ccccc1 -26%
CCOc1ccc2nc(NC(=O)c3ccccc3)sc2c1 30.9%
COC(=O)c1ccccc1NC(=O)CSc1nc2nc(C)cc(C)n2n1 -8.55%
CCOc1ccccc1C(=O)N(Cc1ccco1)Cc1ccccc1F -24.9%
O=c1c(N2CCCCC2)csc2ccc(F)cc12 43.5%
COc1ccc(-c2nc3ccccc3s2)cc1NC(=O)COc1cccc(C)c1 40.5%
CCc1nc2ccc(C(=O)NCc3cccc(Br)c3)cc2nc1CC -8.07%
CCc1ccc(S(=O)(=O)Nc2cc3c(cc2N2CCOCC2)n(C)c(=O)c(=O)n3C)cc1 -3%
CCOc1ccc(NC(=O)C(=O)NCCc2ccccc2)cc1 -1.29% [at 11.5 µM]
COc1ccc(C)cc1NC(=O)N1CCN(c2nnc(C)c3c(C)n(-c4ccccc4)nc23)CC1 5.02%
O=C(Cn1c(=O)n(CCCS(=O)(=O)C2CCCCC2)c(=O)c2ccccc21)Nc1ccc(F)c(Cl)c1 -6.13%
COCCCNC(=O)c1nn(-c2ccc(C)cc2)c(=O)n(C)c1=O 0.794%
Cc1cc(C)cc(NC(=O)CCCn2c(=O)c3cccn3c3ccccc32)c1 -8.02%
CCc1cccc(NC(=O)Cn2ncc3c([nH]c4ccc(C)cc43)c2=O)c1 0.901%
CCOc1ccccc1NC(=O)CCc1c(C)nc2c3cccnc3nn2c1C -7.33%
CCCCNc1sc(S(=O)(=O)CCC)nc1S(=O)(=O)c1ccc(C)cc1 -20.3%
CCNC(=O)c1c2c(nc3ccccc13)C(=O)N(C1CCCCC1)C2 -7.08%
O=C(NC1CC(=O)N(c2ccccc2)C1)c1ccco1 (configuration not stated) -12.8%
COc1cccc(C(=O)NCCc2csc(-c3cccc(F)c3)n2)c1OC -18.9%
CCc1cccc(NC(=O)CN(c2ccc(C)cc2)S(=O)(=O)c2cccs2)c1 -22.4%
CC1(C)CC(=O)c2cc(-c3nc(-c4ccc(Cl)cc4)cs3)c(=O)n(-c3cccc(F)c3)c2C1 -13.9%
CC1(C)CCC(c2ccc(Cl)cc2)=C(CN2CCN(c3ccc(C(=O)NS(=O)(=O)c4ccc(N[C@H](CCN5CCOCC5)CSc5ccccc5)c(S(=O)(=O)C(F)(F)F)c4)cc3)CC2)C1 -6.17%
COc1cc(C)ccc1OCCSc1nc2ccc(NC(=O)c3ccc(C)cc3)cc2s1 2.36%
COc1ccc(-c2ccc(CCC(=O)O)n2CC(=O)Nc2cccc(Cl)c2C)cc1 -25.2%
CC(=O)c1cccc(Nc2nn(-c3ccc(OC(F)(F)F)cc3)nc2C(C)=O)c1 -28.6%
COc1ccc(CNC(=O)CCc2c(C)nc3nc(CNC(=O)OC(C)(C)C)nn3c2C)cc1 -15%
Cn1cc(C(=O)NCCc2ccccc2)c(=O)c2cc(S(=O)(=O)N3CCCCCC3)ccc21 -21.2% [at 11.5 µM]
Cc1c(C(=O)N(Cc2ccc(N(C)C)cc2)Cc2ccco2)oc2cc(Br)ccc12 -11.7%
O=C(CN1C(=O)CC(c2ccco2)Sc2ccccc21)Nc1ccc(Br)cc1 (configuration not stated) -27.2%
CCCSc1nnc2c(n1)OC(c1ccc(OCC(=O)O)cc1)Nc1ccccc1-2 (configuration not stated) 62.7%
COc1ccccc1-c1noc(-c2ccc(NCc3cccnc3)c([N+](=O)[O-])c2)n1 -5.67%
COc1ccc(-n2ccn(Cc3ccccc3C)c(=O)c2=O)cc1 -6.32%
CCc1cc2c(cc3c(=O)n(CC(=O)NC4CCCCC4)ncn32)s1 3.08%
Cc1ccc(OCC(=O)Nc2ccc3[nH]c(=O)sc3c2)cc1 5.14%
CCOc1ccc(N(C(C)C(=O)NCCSc2ccc(C)cc2)S(C)(=O)=O)cc1 (configuration not stated) -28.9%
COc1cccc(C(c2sc3nc(-c4ccco4)nn3c2O)N2CCN(c3ccccc3F)CC2)c1 (configuration not stated) -10.1%
Cc1cc(C)cc(NC(=O)C(=O)NCC(c2cccnc2)N2CCN(c3ccccc3)CC2)c1 (configuration not stated) -10.3%
COc1ccc(-c2cc(C(=O)NCCc3ccc(OC)c(OC)c3)c3ccccc3n2)cc1 8.59%
COc1ccc(NC(=O)C(C)Sc2cc(-c3ccccc3)nc(C)n2)cc1Cl (configuration not stated) -33.7%
O=C(COc1ccc(F)cc1)Nc1ccccc1OCc1cc(=O)n2ccccc2n1 3.21%
COc1ccc(-c2noc(-c3ccc(NC4CCCCC4)c([N+](=O)[O-])c3)n2)cc1 -17.4%
CCc1nn2c(=O)cc(COC(=O)c3ccc(NC(=O)C4CCCCC4)cc3)nc2s1 13%
CCC1CCc2nc3sc(C(=O)Nc4cccc(C(F)(F)F)c4)c(N)c3cc2C1 (configuration not stated) -24.1%
CCCc1cc(=O)oc2cc(C)c3c(C(C)(C)C)coc3c12 -3.23%
COc1cccc(NC(=O)c2ccc3[nH]c(C)cc(=O)c3c2)c1 11.3%
O=C(CCn1c(=O)c2cccn2c2cccnc21)NCc1ccccc1F 6.99%
NC(=O)c1ccccc1O -2.43%
COC(=O)c1ccc(Cn2nc(-c3ccc(C)cc3)ccc2=O)cc1 -10.3%
